Test results: the supplement of paper PMC7826260
The list shows a part of the results. Viral Rep nickase domains cut single-stranded DNA in vitro (3 µM enzyme, 1 h, 37 °C); shown is the middle of each 90-letter strand. Values are log2 of uncut reads against the no-enzyme pool; uncut sequences lie near 0, cut ones below; no hit call is given. Counts are relative to all reads, so uncut sequences can rise above 0 when many others are cut.

Legend:
Assay in all cases: uncleaved DNA left, log2 of reads against the no-enzyme library (log2 ratio); higher = less cleavage (more negative = more Rep cleavage of the k-mer); sequences stand for … in CTCGTCCG…ACCGGAGA
[1] = tested on: T1, Rep nickase domain of Muscovy duck circovirus
T1 sequence (Rep 1-111, printed without the tag): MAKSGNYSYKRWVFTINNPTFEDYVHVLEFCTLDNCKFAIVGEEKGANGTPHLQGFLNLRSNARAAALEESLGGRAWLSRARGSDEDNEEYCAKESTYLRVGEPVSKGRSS
Description: (§1)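 A pool of 90-nt single-stranded DNAs with seven random bases just before the constant AC of the nick site (name = the seven bases) was cut by 3 µM recombinant His6-SUMO-tagged Rep nickase domain (300 nM DNA, 50 mM HEPES pH 8.0, 50 mM NaCl, 1 mM MnCl2, 1 h, 37 °C, three replicates). Uncut DNA was amplified and sequenced.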

[2] = tested on: T2, Rep nickase domain of banana bunchy top virus
T2 sequence (Rep 1-94, printed without the tag): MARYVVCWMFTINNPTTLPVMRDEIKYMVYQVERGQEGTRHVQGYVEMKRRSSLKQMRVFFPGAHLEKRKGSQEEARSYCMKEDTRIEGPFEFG
Description: as §1

[3] = tested on: T3, Rep nickase domain of cabbage leaf curl virus
T3 sequence (Rep 1-116, printed without the tag): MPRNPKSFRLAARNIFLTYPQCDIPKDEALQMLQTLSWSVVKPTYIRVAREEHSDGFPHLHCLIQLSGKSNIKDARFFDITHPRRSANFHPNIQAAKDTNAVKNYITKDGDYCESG
Description: as §1

[4] = tested on: T4, Rep nickase domain of chickpea chlorotic dwarf virus
T4 sequence (Rep 1-124, printed without the tag): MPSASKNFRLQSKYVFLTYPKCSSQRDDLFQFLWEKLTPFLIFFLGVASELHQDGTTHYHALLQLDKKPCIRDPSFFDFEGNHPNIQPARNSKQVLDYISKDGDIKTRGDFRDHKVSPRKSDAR
Description: as §1

[5] = tested on: T5, Rep nickase domain of faba bean necrotic yellows virus
T5 sequence (Rep 1-98, printed without the tag): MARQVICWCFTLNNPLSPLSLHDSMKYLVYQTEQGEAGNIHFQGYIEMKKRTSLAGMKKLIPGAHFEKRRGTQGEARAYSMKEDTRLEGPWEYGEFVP
Description: as §1

[6] = tested on: T6, Rep nickase domain of maize striate mosaic virus
T6 sequence (Rep 1-117, printed without the tag): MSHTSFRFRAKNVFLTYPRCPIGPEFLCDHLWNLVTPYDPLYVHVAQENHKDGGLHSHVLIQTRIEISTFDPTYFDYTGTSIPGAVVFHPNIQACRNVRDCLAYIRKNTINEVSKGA
Description: as §1

[7] = tested on: T7, Rep nickase domain of porcine circovirus 2
T7 sequence (Rep 2-116, printed without the tag): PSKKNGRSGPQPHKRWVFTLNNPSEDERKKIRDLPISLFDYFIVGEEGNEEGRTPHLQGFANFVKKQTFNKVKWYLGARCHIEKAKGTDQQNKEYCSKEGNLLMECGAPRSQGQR
Description: as §1

[8] = tested on: T8, Rep nickase domain of tomato golden mosaic virus
T8 sequence (Rep 1-124, printed without the tag): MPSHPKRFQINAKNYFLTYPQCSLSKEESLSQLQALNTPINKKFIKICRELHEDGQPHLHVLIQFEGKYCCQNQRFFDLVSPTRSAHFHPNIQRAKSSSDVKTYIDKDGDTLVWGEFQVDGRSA
Description: as §1

[9] = tested on: T9, Rep nickase domain of tomato yellow leaf curl virus
T9 sequence (Rep 1-136, printed without the tag): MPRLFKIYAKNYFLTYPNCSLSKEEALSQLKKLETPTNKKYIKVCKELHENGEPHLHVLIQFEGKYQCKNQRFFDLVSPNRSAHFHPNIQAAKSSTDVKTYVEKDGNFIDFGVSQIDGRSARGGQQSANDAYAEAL
Description: as §1

[10] = tested on: T10, Rep nickase domain of wheat dwarf virus
T10 sequence (Rep 1-137, printed without the tag): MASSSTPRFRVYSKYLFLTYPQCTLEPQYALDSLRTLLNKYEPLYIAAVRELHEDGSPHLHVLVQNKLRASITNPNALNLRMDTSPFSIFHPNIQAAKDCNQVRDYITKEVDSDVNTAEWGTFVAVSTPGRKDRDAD
Description: as §1

| Sequence | uncleaved DNA left (log2) [1] | uncleaved DNA left (log2) [2] | uncleaved DNA left (log2) [3] | uncleaved DNA left (log2) [4] | uncleaved DNA left (log2) [5] | uncleaved DNA left (log2) [6] | uncleaved DNA left (log2) [7] | uncleaved DNA left (log2) [8] | uncleaved DNA left (log2) [9] | uncleaved DNA left (log2) [10] |
| --- | --- | --- | --- | --- | --- | --- | --- | --- | --- | --- |
| GAGCCTA | 0.0313 | 0.147 | 0.238 | -0.136 | 0.0749 | 1.1 | -0.273 | 0.0417 | 0.134 | 0.146 |
| CGTATCA | 0.152 | 0.13 | 0.466 | 0.294 | 0.0302 | 0.689 | 0.0668 | 0.0552 | 0.185 | 0.249 |
| GCATTCT | -0.681 | 0.0255 | -0.032 | -0.875 | 0.0795 | -0.291 | -0.736 | 0.0742 | 0.113 | -0.0248 |
| CCGCGCA | -0.0902 | -0.137 | -0.344 | -0.404 | 0.0342 | -0.596 | -0.056 | -0.0886 | -0.0603 | -0.00937 |
| CAGCGAA | -0.108 | -0.214 | -0.344 | -0.526 | -0.122 | -1.13 | -0.266 | -0.106 | -0.0314 | -0.25 |
| ACCCTCT | -0.245 | -0.125 | -0.412 | -2.25 | -0.0842 | -0.881 | -0.326 | -0.0987 | -0.135 | -0.302 |
| GGGAAAA | 0.0517 | 0.153 | 0.957 | 2.15 | -0.0103 | 2.23 | 0.225 | 0.0297 | -0.0348 | 0.236 |
| ACCTTAG | 0.0363 | -0.00431 | -0.71 | 0.116 | 0.056 | -0.62 | 0.214 | -0.044 | 0.0745 | 0.0164 |
| CTCTAAG | 0.113 | 0.131 | -0.782 | -0.218 | 0.126 | -1.16 | 0.273 | 0.104 | 0.146 | 0.0312 |
| CTGACCT | 0.0408 | -0.00257 | -0.00848 | 0.37 | -0.0709 | 0.671 | 0.0145 | -0.0873 | -0.0651 | -0.00502 |
| GCGCAGC | 0.0304 | 0.158 | 0.161 | 0.587 | -0.0844 | 0.535 | 0.12 | 0.0275 | 0.0454 | -0.00919 |
| AGGGGGG | 0.0928 | 0.0206 | -0.0518 | 0.214 | 0.0869 | -0.0655 | 0.238 | 0.0996 | 0.0801 | -0.0142 |
| TGAGAGG | 0.192 | 0.135 | 0.428 | 0.872 | 0.109 | 0.867 | 0.274 | 0.292 | 0.0785 | 0.127 |
| ATTGTTC | -0.0789 | -0.0783 | -0.207 | -2.18 | 0.0153 | -0.926 | -0.203 | -0.0776 | -0.01 | -0.21 |
| GGCGGCC | -0.0523 | 0.0793 | 0.159 | 0.864 | -0.0599 | 1.09 | 0.0367 | -0.0221 | -0.141 | -0.0218 |
| ATAGCTA | -0.114 | -0.0704 | -0.144 | -0.56 | -0.0485 | -0.266 | -0.0673 | -0.0295 | -0.123 | -0.0317 |
| TAACACG | 0.0326 | 0.0237 | -0.993 | -1.31 | -0.0443 | -1.39 | 0.0604 | -0.0604 | -0.0229 | -0.119 |
| GGTTAAG | 0.0958 | -0.0599 | -0.219 | -0.0431 | 0.0357 | -0.516 | 0.0966 | 0.0773 | 0.003 | -0.0491 |
| TGCGTGA | 0.0822 | -0.0929 | -0.235 | -0.369 | 0.00506 | -0.775 | -0.0621 | 0.019 | -0.00834 | -0.0844 |
| TAGGTCA | 0.0856 | 0.0158 | 0.294 | -0.344 | 0.0529 | 1.04 | -0.447 | 0.0855 | 0.0606 | 0.0692 |
| ATTGGTG | 0.0126 | 0.0514 | -0.539 | -0.474 | 0.0821 | -0.961 | 0.17 | -0.0217 | 0.0563 | -0.0837 |
| TCCATGC | 0.0379 | -0.0866 | -0.653 | -0.544 | 0.0186 | -1.18 | 0.0818 | -0.0997 | 0.0253 | -0.0235 |
| TCGGATT | 0.144 | -0.206 | 0.0788 | 0.0938 | 0.0903 | 1.43 | -0.137 | 0.0715 | -0.0101 | 0.00381 |
| GCCGGCA | 0.0292 | 0.0569 | 0.214 | 0.502 | -0.00582 | 0.224 | 0.0564 | 0.0851 | -0.0453 | 0.0238 |
| GATGACC | 0.0127 | 0.131 | 0.122 | 0.794 | 0.00532 | 1.06 | 0.139 | 0.102 | 0.0719 | 0.191 |
| TACCATA | 0.00673 | 0.0563 | -0.307 | -2.6 | 0.0152 | -0.592 | -0.628 | 0.112 | 0.0237 | -0.00291 |
| CTAGAAA | 0.132 | 0.201 | 0.191 | 0.134 | 0.11 | -0.399 | 0.279 | 0.188 | 0.0318 | 0.211 |
| GCTGGGT | 0.095 | -0.0333 | 0.182 | 0.549 | -0.0835 | 0.798 | 0.0374 | 0.167 | 0.0479 | -0.0418 |
| CCCTGGT | -0.355 | -0.246 | -0.104 | -0.127 | -0.213 | -0.224 | -1.39 | 0.0847 | -0.0431 | -0.0455 |
| TTTAATA | -0.0116 | -0.0278 | 0.0806 | -1.08 | 0.024 | -0.185 | -0.0911 | 0.0208 | 0.0558 | 0.105 |
